Assay results published in the supplement of paper PMC3334620.
The full ranking holds about 33,000 sequences; the median of “E-score (-0.5 to 0.5)” is about -0.011, and the highest 2% start at about 0.28. The list shows a part of the results.

molecular target: T1, Gcr1 (UniProt P07261); test: PBM E-score (8-mer binding enrichment) (E-score (-0.5 to 0.5)); higher = stronger / more preferred TF binding; most listed sequences are background and not binding sites; details: protein concentration: 100 nM; construct: GST-full length
T1 sequence: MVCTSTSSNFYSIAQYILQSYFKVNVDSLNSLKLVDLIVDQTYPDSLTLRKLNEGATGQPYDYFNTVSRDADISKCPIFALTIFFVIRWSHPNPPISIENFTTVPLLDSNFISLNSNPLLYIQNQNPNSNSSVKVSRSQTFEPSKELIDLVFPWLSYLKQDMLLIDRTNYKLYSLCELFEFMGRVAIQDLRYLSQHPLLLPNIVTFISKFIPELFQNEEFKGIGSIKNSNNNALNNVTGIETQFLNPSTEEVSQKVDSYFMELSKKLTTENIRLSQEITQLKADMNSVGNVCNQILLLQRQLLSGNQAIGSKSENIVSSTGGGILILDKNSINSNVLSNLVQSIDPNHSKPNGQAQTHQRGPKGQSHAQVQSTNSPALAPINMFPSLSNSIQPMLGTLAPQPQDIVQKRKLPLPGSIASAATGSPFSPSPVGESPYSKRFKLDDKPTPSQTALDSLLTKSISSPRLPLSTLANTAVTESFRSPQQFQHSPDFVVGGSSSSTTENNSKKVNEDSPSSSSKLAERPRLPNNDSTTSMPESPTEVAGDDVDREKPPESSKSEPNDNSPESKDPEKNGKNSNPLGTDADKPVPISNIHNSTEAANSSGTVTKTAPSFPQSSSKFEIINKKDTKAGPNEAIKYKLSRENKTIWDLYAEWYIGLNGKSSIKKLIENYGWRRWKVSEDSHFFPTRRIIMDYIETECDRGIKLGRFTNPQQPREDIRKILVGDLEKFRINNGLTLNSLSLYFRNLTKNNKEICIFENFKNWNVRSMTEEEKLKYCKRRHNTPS
In short: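 Universal all-10-mer Agilent arrays, double-stranded by primer extension on fresh or once-stripped slides, were probed with about 100-200 nM GST-tagged yeast transcription factors made by PURExpress. Fluorescent anti-GST detected bound protein, and masliner normalised the scans. E-scores from the Universal PBM Analysis Suite were given to each ungapped eight-base word pooled with its reverse complement.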

Sequence	PBM E-score
GCCATTGA	-0.183
CGCGTCAC	-0.00336
CTCTTGGC	0.0301
CCTTTGAC	-0.135
CGAAGGCA	-0.173
ATGTTGGC	0.00948
AAGTGACC	-0.151
ATCTCGCA	0.00385
TCAGCCAA	-0.102
AGAATGCG	0.0554
AGCAGCCG	0.285
AATGTGAG	0.0153
GTTTAAAA	0.184
ATGTCACA	0.092
TGATGGAA	0.177
AAGACTAA	0.109
CTAGTAAA	0.226
ACAGGCGA	-0.167
GACCTTCA	-0.157
ACAGCTCG	-0.11
CGACTGCC	-0.0219
ATTAAACG	0.0978
ATCATAGA	-0.121
TAGCGCTA	-0.201
ATCGGTAC	-0.121

Sequence	PBM E-score
TATGGGGA	0.14
AAGGACGT	-0.131
ACATGCCG	-0.135
ATCCCAAC	0.117
CAAAACTG	0.107
AAGCGGCT	0.232
AAAGTCGT	0.0398
CTGGCTTC	0.362
ACGAAAAC	-0.0729
CTATCGTC	-0.014
CGCTTCAA	0.038
GCGCTTTA	-0.0303
CCTTTCGA	0.0109
ATCTTTTG	-0.0138
ACTACACG	0.142
AGTTCTTC	0.129
GAGCAACA	-0.0873
CTGGCCTA	-0.394
GACTAGGA	-0.0166
AGTTACTA	0.142
CGATCAAG	-0.0812
AGGGCTAA	-0.141
ACTAGCTA	-0.00239
ACGAGAGC	-0.0344
TCGGACCA	-0.179

Sequence	PBM E-score
CTATGACC	-0.209
GCGAGATA	0.124
AACTATCG	-0.108
CACGGCTA	-0.0258
CCACTGGC	-0.022
GCAAATTA	0.145
AACGCGCT	0.0775
AGAGCCCT	-0.129
TGACGGAA	0.0807
CGAAGACA	-0.0758
AGGCACTG	-0.0493
CCTGCAAG	-0.232
ACTGGGAG	0.123
GCGATAAA	-0.112
CGGCGAGC	-0.256
AATAGTAA	0.0605
CAGGCGAA	-0.252
AGCGGGGG	-0.314
ACATCATG	-0.133
TACTCTAA	-0.196
AGGGGTCA	-0.0268
CATTCGTA	0.0763
GCTGACAC	-0.133
AAGTTGCC	0.127
ATGGCCCG	-0.309

Sequence	PBM E-score
AAGGCTCA	-0.217
CCCGTAGG	-0.106
AAAGCGTT	-0.224
GACAGGGA	0.0551
CGAGTTAG	-0.091
CGCTCCCA	0.132
CCTAACTA	0.192
ATAGCCGG	-0.174
CCTCCATA	-0.106
CTACACAA	-0.113
GGCACCCA	0.381
CACAATGC	-0.0262
AACCGCCC	-0.172
GCGTCGTA	0.242
CCTGCAGA	-0.063
ATGGAAAC	0.0953
CAGACAAA	0.0568
CACTGGGG	0.0565
GCATAACC	-0.19
ATACCCGG	-0.0356
ACATTCTG	-0.0939
CAAGAGTC	-0.0179
CCCAGATC	-0.109
GTTTGTAA	-0.00488
AAGGCTAA	-0.0944

Sequence	PBM E-score
GACTGCCC	-0.28
GATGGAGC	-0.112
AGCGGGAC	-0.0513
GATTACGA	-0.0537
GCAGTGGA	0.11
ACACTTAG	-0.0488
ATGAATCG	-0.0193
GAAAGCAC	-0.144
CTATAATC	0.00892
CTGCCGCA	0.0817
ACGTAGGA	0.00153
CTTTAGAA	0.0352
ACGCTGTA	-0.0367
AATCGAAT	0.168
GACTAGCA	-0.00823
TAACTATA	0.128
GCGGCAGC	0.253
GCCCAGGA	-0.0115
CCGAGCAC	0.104
AGAAGGCA	0.00025
GAAGTCCA	0.0795
GCATTTAA	0.0306
CCATCGCG	0.0375
GGCGAAAA	0.125
AGCAGAGA	0.0185

Sequence	PBM E-score
ACGAAATG	-0.0577
CACCCGAA	0.212
AATGCCGA	-0.178
GTCGTCGA	-0.0924
AGCGCCGC	0.187
CCTAACAC	0.107
ACTCCCTA	-0.0517
CGGCTTAG	0.0319
GGGTAGTA	-0.21
CACATCAG	-0.137
ATTAGTCG	-0.0557
ACGGTCTC	-0.147
AGTACGCC	-0.163
GTAGCGCA	0.139
GCGTATTA	0.109
TAGCGCAA	0.0029
CTGGGACA	-0.00954
AACGCACT	0.0984
CCGGCTAA	-0.0373
AATTTGTG	0.168
AAGGACAA	-0.181
AAACTTCT	0.139
GGCAAGCC	-0.0773
GGGGACGA	-0.0713
AACATAAA	0.089

Sequence	PBM E-score
AGATTTAT	0.107
AATTACAA	0.00033
CCATACGG	0.0586
TTAGGCAA	-0.0665
ACAACACG	-0.0643
GATACTCA	-0.0294
GACTCGCC	-0.18
CCGAGTGA	0.0218
ATCACTCA	0.00858
GGGAGCGA	-0.127
GATCTAAA	-0.0916
ACTAGAGG	0.134
ATCTACCG	-0.0418
AACTAGAG	0.105
TGACTGAA	-0.152
AGACACGA	0.0227
CGCACACC	0.0238
ACGGCTTA	-0.11
GCTTAGCC	-0.211
CATCTGGG	0.0918
GGGATGCA	-0.0546
ACAATCTA	-0.152
